Data: paper PMC4336329 (PLoS ONE, 2015)
The campaign covered roughly 310,000 compounds. About 2,200 (0.71%) showed an effect of 50% or more. Effects have a minus sign here. This is one part of the list.

These molecules were tested against human ether-à-go-go-related gene (hERG) potassium channel (human, UniProt Q12809) (assay: primary screen, population patch clamp on CHO cells stably expressing hERG).
Sequence of human ether-à-go-go-related gene (hERG) potassium channel (Q12809 whole entry, looked up): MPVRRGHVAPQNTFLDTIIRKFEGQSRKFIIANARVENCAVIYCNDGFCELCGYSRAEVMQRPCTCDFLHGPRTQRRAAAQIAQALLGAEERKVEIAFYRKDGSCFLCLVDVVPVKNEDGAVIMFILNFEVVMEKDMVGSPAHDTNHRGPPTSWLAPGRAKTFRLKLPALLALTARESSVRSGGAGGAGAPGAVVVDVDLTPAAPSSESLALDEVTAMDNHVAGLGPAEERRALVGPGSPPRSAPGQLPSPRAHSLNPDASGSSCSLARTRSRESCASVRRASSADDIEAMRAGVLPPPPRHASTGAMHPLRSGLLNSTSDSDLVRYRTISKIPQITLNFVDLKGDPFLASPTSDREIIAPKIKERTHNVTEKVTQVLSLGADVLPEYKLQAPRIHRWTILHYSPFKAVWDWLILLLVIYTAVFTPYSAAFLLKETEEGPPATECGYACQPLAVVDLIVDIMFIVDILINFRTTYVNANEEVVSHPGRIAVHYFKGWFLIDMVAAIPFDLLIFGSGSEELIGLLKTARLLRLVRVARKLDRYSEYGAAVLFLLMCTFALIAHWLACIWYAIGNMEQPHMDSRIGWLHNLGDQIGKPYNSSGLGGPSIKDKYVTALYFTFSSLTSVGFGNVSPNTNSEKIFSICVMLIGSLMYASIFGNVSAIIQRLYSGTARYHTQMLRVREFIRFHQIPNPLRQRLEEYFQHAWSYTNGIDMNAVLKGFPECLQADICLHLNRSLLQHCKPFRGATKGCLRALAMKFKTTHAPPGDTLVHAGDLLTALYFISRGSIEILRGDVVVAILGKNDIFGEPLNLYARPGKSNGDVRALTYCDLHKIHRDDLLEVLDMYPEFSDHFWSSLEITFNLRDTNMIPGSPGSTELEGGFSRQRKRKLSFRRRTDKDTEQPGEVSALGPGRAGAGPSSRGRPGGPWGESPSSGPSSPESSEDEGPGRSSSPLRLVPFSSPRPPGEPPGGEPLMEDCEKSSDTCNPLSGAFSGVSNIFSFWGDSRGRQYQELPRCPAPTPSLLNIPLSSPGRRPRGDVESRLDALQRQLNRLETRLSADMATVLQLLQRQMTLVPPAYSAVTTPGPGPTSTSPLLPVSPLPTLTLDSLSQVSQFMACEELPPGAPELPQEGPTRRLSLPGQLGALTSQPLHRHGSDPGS

Structure (SMILES)	hERG current change (%, negative = inhibition) at 1uM [%]
CCOc1ccc(-c2nnn(CC(=O)NCc3ccco3)n2)cc1	-2.63
CCN(CC(=O)Nc1c(F)cccc1F)C(=O)c1cc(C)nc2ccccc12	8.86
C=CCN(c1ccc(Cl)cc1)S(=O)(=O)c1cccc(C(=O)O)c1	15.3
O=C(Nc1ccc(N2CCCC2)cc1)c1ccc([N+](=O)[O-])cc1Cl	9.52
C=CCN1C(=O)S/C(=C/c2ccsc2)C1=O	10.6
CCCC1CC(c2csc(N)n2)CCO1 (centres unmarked)	12.1
COCCCN1C(=O)c2ccc(C(=O)Nc3ccccc3OC)cc2C1=O	2.45
Cc1c(NC(=O)C(C)SC(=S)N2CCCC2)c(=O)n(-c2ccccc2)n1C (centres unmarked)	8.1
COc1ccc(Nc2ncc(C#N)c(N)n2)c(OC)c1	4.85
O.O=c1ccc2cc(O[C@@H]3O[C@@H](CO)[C@H](O)[C@@H](O)[C@@H]3O)c(O)cc2o1	10.5
CCOC(=O)c1[nH]cnc1C(=O)Nc1ccccc1	5.4
O=C(COc1ccccc1)NCC(=O)N/N=C/c1ccc(Br)cc1	-18.1
COc1cccc(-c2nn(Cc3ccccc3)cc2CO)c1	15
O=C(NNc1nc2ccc(Cl)cc2s1)c1cc(-c2cccs2)nc2ccccc12	4.23
CCCc1nnc(SCC(=O)N2C(C)CCCC2C)n1CCCOC (centres unmarked)	0.38
COC(=O)c1ccc(S(=O)(=O)NCc2ccco2)n1C	9.08
CCN(CCCCN1C(=O)c2ccccc2C1=O)c1ccc2c(c1)C(=O)N(C)C2=O	5.82
COc1ccc(S(=O)(=O)N2CCCCCC2)cc1C(=O)N(C)Cc1ccc(Cl)cc1Cl	-2.04
COc1cc(/C=C/C(=O)O)cc(Br)c1O	8.32
COc1cccc(-c2[nH]nc3c2C(c2ccc(C)o2)C(C#N)=C(N)O3)c1 (centres unmarked)	-4
Cc1cc(Nc2ccc(Cl)cc2)nc(NCc2ccccc2)n1	9.08
O=C(CS(=O)(=O)c1ccc(Br)cc1)N1CCOCC1	10
COC(=O)c1ccc(NC(=S)NC2CC(C)(C)NC(C)(C)C2)cc1	9.48

Structure (SMILES)	hERG current change (%, negative = inhibition) at 1uM [%]
O=C(NC1CCCc2ccccc21)c1ccccn1 (centres unmarked)	11.7
O=C(Nc1cccc(C(=O)N2CCOCC2)c1)NC1CCCCC1	0.506
COc1cc(OC)c(NC(=O)c2cncn2-c2ccc(F)cc2)cc1Cl	5.23
COc1ccccc1N(CC(=O)N/N=C(\C)c1ccc(F)cc1)S(=O)(=O)c1ccccc1	28.3
O=C(c1ccc(Cl)c(S(=O)(=O)N2CCCCC2)c1)N1CCCC1	12.1
Cc1c(NC(=O)NC2CCCCC2)cccc1[N+](=O)[O-]	17.2
CCSc1nsc(NC(=O)Nc2ccc(F)cc2F)n1	18.3
O=C(CCl)N(CCc1ccccc1)CCc1ccccc1	7.11
CC(C)c1ccc(/C=c2\sc3nc(-c4ccncc4)nn3c2=O)cc1	5.57
CCc1nc2sccc2c(=O)n1N	24.9
COc1ccccc1C/C(N)=N/OC(=O)COc1cccc(C)c1	6.86
Cc1nn(Cc2ccc(F)cc2)c(C)c1NC(=O)c1cc(-c2ccc3c(c2)OCO3)on1	-2.14
CCOC(=O)c1ccc(N2CCOCC2)c(NC(=O)COCC(=O)O)c1	10.9
Cc1ccc(-c2nc(-c3ccncc3)no2)c(C)c1	14.1
O=C(Nc1ccccc1-c1nnn(CC(=O)N2CCOCC2)n1)c1ccc(F)cc1	11.6
OC1(CNCc2cn[nH]c2-c2cc3ccccc3o2)CCCCC1	5.16
CCc1ccc(CNCc2ccc(F)cc2)cc1	1.27
CC(=O)Nc1ccc(C(=O)OCC(=O)c2ccc(F)cc2)cc1	11.3
Cc1ccc(-n2nc3c(c2NC(=O)c2cccs2)CS(=O)(=O)C3)cc1	6
CN(C)S(=O)(=O)c1ccc(NC(=O)c2ccccn2)cc1	16.1
Cc1ccccc1CSc1nnc([C@@H]2CCCN2)o1.Cl	10.5
COc1ccc(OC(=O)c2cn(C)nc2C(F)(F)F)cc1	11.3
Cc1ccc2cc(C#N)c(NCCCNC(=O)C3CCCO3)nc2c1 (centres unmarked)	1.42

Structure (SMILES)	hERG current change (%, negative = inhibition) at 1uM [%]
CC1CCN(C2CCN(S(=O)(=O)c3ccc(F)cc3)CC2)CC1.O=C(O)C(=O)O	-16.2
CCNCc1ccccc1OCc1ccccc1.Cl	9.31
O=C(O)C(NS(=O)(=O)c1cccc2nsnc12)c1ccccc1 (centres unmarked)	13.7
CC(=O)OC(C)(C)C#CCN1CCCC1	10.4
COc1cccc2oc3ccc(C#CC4(N)CCCCC4)cc3c(=O)c12	-1.98
Cc1ccc(/C=N/NC(=S)NCCc2ccccc2)s1	16.8
Cn1cnnc1SCC(=O)Nc1cccc(S(=O)(=O)N2CCCCCC2)c1	4.35
COc1ccc(C(CNC(=O)COc2ccccc2)N2CCOCC2)cc1 (centres unmarked)	11.6
Cc1nc2cc(NC(=O)N3CCCC3)ccc2n1C	8.27
CC(Oc1cccc2ccccc12)C(=O)N/N=C/c1cccnc1 (centres unmarked)	15.3
O=C(/C=N/O)NCCN1CCCCC1	13.4
O=C(Cn1c(CO)nc2ccccc21)Nc1cc(C(F)(F)F)ccc1N1CCOCC1	8.51
CCn1ccnc1CN(C)C(=O)C1CCC(=O)N(Cc2cccc(C(F)(F)F)c2)C1 (centres unmarked)	1.11
C=CCNC(=S)NNC(=O)C(CCCC)CC(O)COCC(C)C (centres unmarked)	5.02
CNC(=O)CC(C(=O)O)c1ccc(OC(C)C)cc1 (centres unmarked)	0.895
O=C(O)CCCCCCCCc1cn(CC2CCCCC2)nn1	17
CN=c1sc(C(=O)Nc2ccccc2)c(C)n1C	6.87
CS(=O)(=O)N(CC(=O)NCc1ccccc1)c1ccc(Cl)cc1	15.2
CCOC(=O)[C@H]1[C@H]2COc3ccc(Cl)cc3[C@@H]2N2C(=O)c3cc(Cl)ccc3NC(=O)[C@@]12C	10
CCOC(=O)c1nn(-c2ccc(Br)cc2)cc1C(=O)c1cccc2ccccc12	11.6
O=C(C1CCCN(S(=O)(=O)c2cccc3nonc23)C1)N1CCN(c2cccc(Cl)c2)CC1 (centres unmarked)	11.1
O=C1NC(=O)C(CCc2ccncc2)(Cc2cccc(Cl)c2Cl)C(=O)N1c1ccc(Br)cc1 (centres unmarked)	2.57
COc1ccc(C(=O)OCC(=O)c2ccc(C3CCCCC3)cc2)cc1	10.1

Structure (SMILES)	hERG current change (%, negative = inhibition) at 1uM [%]
COc1ccc(CCNC(=O)c2ccc(NS(=O)(=O)c3ccc4[nH]c(=O)[nH]c4c3)cc2)cc1OC	12.7
CC(=N)c1c(O)c2ccccc2oc1=O	8.97
CC(C)c1ccc(CNc2nnnn2C)cc1	12.3
CCn1c(NC(=O)c2ccccc2)nc2ccccc21	11.3
Cc1ccc2c(c1)c(C)c(C)n2CC(O)CN1CCOCC1.Cl (centres unmarked)	15.4
COc1ccc(C(=O)NC(=S)NNC(=O)COc2ccccc2)cc1	2.85
O=C(CN1C(=O)S/C(=C/c2cc(Br)cs2)C1=O)N1CCOCC1	-1.05
Cc1ccc(O)c(C2=Nc3ccccc3N=C(c3cccc([N+](=O)[O-])c3)C2)c1	13.8
Cc1sc2ncnc(N3CCC(C(=O)Nc4nc5ccc(Cl)cc5s4)CC3)c2c1C	12.6
COC(=O)CSc1nc(-c2ccccc2)nc2ccc(F)cc12	-2.67
CCN1CCN(C(=O)C2CCCN(c3ncnc4c3nc3n4CCCCC3)C2)CC1 (centres unmarked)	17.4
Cc1nnc(SCc2c(Cl)cccc2[N+](=O)[O-])s1	3.96
O=C(CCc1nc2ccccc2s1)OCC(=O)c1ccc[nH]1	12.9
CC(C)COC(=O)NCCOC(=O)Nc1cccc(Cl)c1	11.6
Cc1nc2ccc(NC(=O)c3nn(C(C)C)c(=O)c4ccccc34)cc2s1	20.2
CN1CCN(C(=O)CCn2nc(-c3ccccc3)c3ccccc3c2=O)CC1	7.83
O=C1CC(c2ccccc2Cl)CC(O)=C1C=Nc1ccccc1 (centres unmarked)	15.8
Cc1noc(C)c1COc1ccccc1C(=O)N(C)CC(=O)Nc1ccc(F)c(F)c1F	2.63
CCOc1ccc(NS(=O)(=O)c2ccc(NC(=S)NC(=O)CC(C)C)cc2)cc1	11.5
CN(Cc1nccs1)C(=O)c1ccc(OC2CCN(CCc3ccccc3)CC2)cc1	-24.7
Cc1ccc(NC(=O)c2cccc(S(=O)(=O)N(C)C3CCCCC3)c2)nc1	-4.71
CCN(CC)S(=O)(=O)c1ccc(OCC(=O)NC(=O)Cc2ccccc2)c([N+](=O)[O-])c1	1.75
CC(=O)C1C(c2cccc(F)c2)c2c(n[nH]c2C)CC1(C)O (centres unmarked)	14.1
